Assay results published in PubChem BioAssay AID540267 (National Center for Advancing Translational Sciences (NCATS), 2011).
Where “and” joins values, the source holds several entries; their conditions need not be identical. Equal entries are not always repeated. The whole screen tested about 340,000 compounds, of which about 530 (0.16%) were called active. The inconclusive results got no clear call from the source; some entries with a clear call stand among them for comparison. Rule as the data show it: active = activity change below about -80%; inconclusive = between about -30% and that limit; inactive = weaker than that.

Assay: Small Molecules that selectively kill Giardia lamblia: qHTS;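 also: parasites exposed to compound for two days anaerobically before the ATP read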
Conditions: Giardia lamblia trophozoite viability; at 7.66 µM; hits give low values
In short: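 Each well holds 100 Giardia trophozoites and compound. After two days (48 hrs) at 37 deg C in anaerobic conditions, ATP is quantified by luminescence.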
% is scaled to controls: 0 for no effect and ±100 for the full control effect.

SMILES | activity change
COc1ccc2[nH]cc(/C=C/C(=O)c3ccccc3)c2c1 | inconclusive: -32.2% [inhibitor]
Cc1ccc(C2(c3noc(CN(C)Cc4cccnc4)n3)CCCC2)cc1 | inconclusive: -30.9% [inhibitor]
Cc1cc(N2C(=O)C(O)=C(C(=O)c3cc4ccccc4o3)C2c2ccc(Br)cc2)no1 (stereo not drawn) | inactive: 14.4%
COc1cccc(/C=C/C(=O)NNC(=O)c2ccco2)c1OC | inconclusive: -30.4% [inhibitor]
COc1ccc(S(=O)(=O)N2CCC(C(=O)NCc3ccccc3)CC2)cc1OC | inconclusive: -40.8% [inhibitor]
COC(=O)c1ccc(NC(=O)Cn2cnc3c(nnn3-c3cccc(OC)c3)c2=O)cc1 | inconclusive: -38.5% [inhibitor]
c1ccc(-c2nn3c(C4CCCCC4)nnc3s2)cc1 | inconclusive: -33.4% [inhibitor]
Cc1ccc(-c2nnn(CC(=O)N(c3ccccc3)C(C(=O)NC3CCCC3)c3ccncc3)n2)o1 (stereo not drawn) | inactive: -20.1%
Cc1ccc([N+](=O)[O-])cc1NC(=O)Nc1cccc(F)c1 | inactive: -18.3%
COc1ccc(C(=O)NC(C)c2csc(C)n2)cc1OC1CCN(C(C)=O)CC1 (stereo not drawn) | inconclusive: -30.1% [inhibitor]
C=CCCC(=O)Nc1nc(C)c(-c2csc(Nc3ccc(Cl)cc3Cl)n2)s1 | inconclusive: -30% [inhibitor]
O=C(Nc1ccc(N2CCCCC2)cc1)c1ccccc1 | inconclusive: -35.4% [inhibitor]
O=Cc1ccc(-c2ccc(C(=O)O)cc2)o1 | inconclusive: -38.6% [inhibitor]
O=C(OCC(=O)N1CCCC1)c1c2c(nc3ccccc13)CCCCC2 | inconclusive: -32.4% [inhibitor]
O=C(CN1C(=O)c2cccnc2Oc2ccc(Cl)cc21)NC1CCCC1 | inconclusive: -38.2% [inhibitor]
CC(=O)Nc1ccc(/C=N/Nc2nc3ccccc3[nH]2)cc1 | inconclusive: -35.2% [inhibitor]
Cc1ccc(C2C(C#N)=C(N)Oc3cc(N)ccc32)cc1 (stereo not drawn) | inactive: 4.98%
CSc1ccc2nnc(-c3ccc(C)cc3)n2n1 | inconclusive: -34% [inhibitor]
CCCCC[C@H]1CN(C2CCCCC2)C(=O)[C@@H]1CC(=O)NCc1ccc(OC)cc1 | inconclusive: -31.7% [inhibitor]
CCc1nc(SCC(=O)N2CCC(C)CC2)c2c(=O)n(C)c(=O)n(C)c2n1 | inactive: 2.47%
O=C(CNC(=O)c1ccccc1)N/N=C/c1ccc([N+](=O)[O-])o1 | inconclusive: -48.6% [inhibitor]
Cc1cc(O)c(C=Nc2ccc(Cl)cn2)c(=O)o1 | inactive: 16.9%
COc1ccc(NC(=O)C2CC2)cc1S(=O)(=O)N1CCOCC1 | inconclusive: -32.1% [inhibitor]
Cc1ccc(C(=O)Nc2ccccc2N2CCN(C(=O)C(C)C)CC2)cc1C | inactive: 13%
O=C(COC(=O)/C=C/c1ccc(C(F)(F)F)cc1)NCc1ccco1 | inconclusive: -33% [inhibitor]
Cc1cccc(C)c1NC(=O)N1CC(C)OC(C)C1 (stereo not drawn) | inconclusive: -36.2% [inhibitor]

SMILES | activity change
CC(C)c1ccc2oc(-c3ccc(N)cc3)nc2c1 | inconclusive: -30.5% [inhibitor]
CN(C)C(=O)C[n+]1ccc(C(N)=O)cc1 | inconclusive: -53% [inhibitor]
COc1ccccc1Nc1nc(N(C)c2ccccc2)nc(N)c1[N+](=O)[O-] | inconclusive: -40.1% [inhibitor]
Fc1cc2[nH]cnc2cc1Cl | inconclusive: -45.7% [inhibitor]
CCN1CCN(c2cc(C)nc(-c3ccccc3O)n2)CC1 | inactive: -8.66%
COc1ccc2sc(NC(=O)NC(=O)c3c(Cl)cccc3Cl)nc2c1 | inconclusive: -44.3% [inhibitor]
CCOC(=O)C1=C(C)c2ccccc2OC1(CC)C(=O)OCC (stereo not drawn) | inconclusive: -32.6% [inhibitor]
O=C(Nn1cnc2ccccc2c1=O)c1ccc(Cl)c([N+](=O)[O-])c1 | inactive: 3.31%
CCCN(CC(=O)Nc1ccccc1OC)CC(=O)c1c(N)n(Cc2ccccc2)c(=O)n(C)c1=O | inconclusive: -31.2% [inhibitor]
O=C(CCNS(=O)(=O)c1ccccc1C(F)(F)F)N1CCN(S(=O)(=O)c2cccc(F)c2)CC1 | inconclusive: -31.5% [inhibitor]
Cc1ccsc1C(=O)OCC(=O)c1cc(C)n(C)c1C | inconclusive: -32.8% [inhibitor]
CCCn1c(C)nc2c(c1=O)c1nc3ccccc3nc1n2CCC1=CCCCC1 | inactive: -1.15%
CCCCCCCCc1nc(SCC(C)=O)n[nH]1 | inconclusive: -35.8% [inhibitor]
Cc1cccc(NC(=O)Nc2cccc3ccccc23)c1 | inconclusive: -39.3% [inhibitor]
CCc1ccc(Nc2ccc3nonc3c2[N+](=O)[O-])cc1 | inactive: 20.3%
CCOC(=O)c1cccc(NS(=O)(=O)Cc2ccccc2)c1 | inconclusive: -35.8% [inhibitor]
Cc1ccccc1NC(=S)Nc1ccc2[nH]c(=O)[nH]c2c1 | inconclusive: -31.9% [inhibitor]
CC(C)CC(=O)Nc1cc2c3c(c1)C(C)C(=O)N3CCC2 (stereo not drawn) | inconclusive: -36.6% [inhibitor]
Cc1nc(CS(=O)(=O)c2ccc(Cl)cc2)sc1C(=O)O | inconclusive: -47.9% [inhibitor]
O=C(CSc1nnc(NC(=O)c2ccccc2)s1)NC1CCCC1 | inconclusive: -44.6% [inhibitor]
Oc1ccc(-c2csc(Nc3ccccn3)n2)cc1O | inactive: -18.2%
O[C@@H](c1cc(C(F)(F)F)nc2c(C(F)(F)F)cccc12)[C@H]1CCCCN1 | inactive: 11% and inactive: 0.0114%
O=[N+]([O-])c1cc(N=Nc2ccc3ccccc3c2)ccc1O | inconclusive: -36.1% [inhibitor]
CCOc1cccc(-c2c(C(=O)N/N=C/c3ccc(C)s3)nnn2-c2nonc2N)c1 | inactive: -3.14%
COc1ccc(-c2nnc(NC(=O)c3ccccc3C)o2)cc1 | inconclusive: -38.8% [inhibitor]
Nc1c(N2CCCC2)cc(Cl)c2nonc12 | inactive: -2.97%

SMILES | activity change
CCN1CCN(Cc2ccc(NC(=O)c3cc(NC(=O)c4cnnc5ccccc45)cc(OC)c3)cc2C(F)(F)F)CC1 | inconclusive: -37.7% [inhibitor]
CCCC(=O)Nc1cccc(NC(=O)c2ccc3c(c2)OCCO3)c1 | inconclusive: -40.1% [inhibitor]
O=C(Nc1ccc(F)cc1)Nc1ccc(S(=O)(=O)N2CCCC2)cc1 | inconclusive: -33.3% [inhibitor]
Cc1cccc(OCc2nc(-c3ccc(Br)o3)no2)c1 | inconclusive: -31.7% [inhibitor]
COc1cc(C(=O)Nc2cc(OC)c(OC)c(OC)c2)ccc1OCc1c(C)noc1C | inactive: -7.95%
O=[N+]([O-])c1cc2cccnc2c2ncccc12 | active: -87.7%
COc1ccc(-c2cc(C(F)(F)F)nc(SCC(=O)NCc3cnn(C)c3C)n2)cc1OC | inactive: -11.3%
Cc1ccnc(NC(=O)c2cccc(NC(=O)Cc3ccccc3)c2)c1 | inconclusive: -32.1% [inhibitor]
CCOc1ccc(/C=C\C(C)=N\O)cc1 | inconclusive: -30.8% [inhibitor]
COc1cc(OC)cc(C(=O)NCC(=O)NC(C)c2ccccc2)c1 (stereo not drawn) | inactive: 11%
CCN(CC)C(=O)C(Cc1ccccc1)N1C(=O)c2ccccc2C1=O (stereo not drawn) | inconclusive: -31% [inhibitor]
CCCn1c(=O)c(C(=O)NNS(=O)(=O)c2ccc(NC(=O)OC)cc2)c(O)c2ccccc21 | inconclusive: -34.4% [inhibitor]
Cc1ccc(CN(C)c2nc(-c3cccnc3)nc3ccccc23)o1 | inactive: 2.82%
CC(C)c1ccc(NC2CCCN(C(=O)C3=NN(C)C(=O)CC3)C2)cc1 (stereo not drawn) | inconclusive: -34.5% [inhibitor]
Nc1nnc(SCC(=O)Nc2ccc(F)c(Cl)c2)n1-c1ccccc1 | inactive: -9.89%
O=C(N/N=C/c1ccc([N+](=O)[O-])o1)c1ccc2c(c1)OCO2 | active: -91.4%
CCCNC(=O)c1onc(CSc2ccc(F)c(F)c2)c1C(=O)NCCC | inactive: 21.3%
O=C(Nc1ccc(Cl)cc1)Nc1nnc(/C=C/c2ccccc2)s1 | inconclusive: -33.9% [inhibitor]
Cc1ccccc1NC(NC(=O)OCCn1c([N+](=O)[O-])cnc1C)C(Cl)(Cl)Cl (stereo not drawn) | active: -82.3%
CCCSc1nnc(NC(=O)CSc2sc3c(O)cc(=O)[nH]c3c2C#N)s1 | inactive: -0.267%
Cn1c(/C=C/c2ccccc2)nc2ccccc21 | inconclusive: -79.1% [inhibitor]
CC(C)C[C@@H](CNCC(=O)[C@H](CC(C)C)NC(=O)c1[nH]cnc1C(=O)N[C@@H](C)CN)NC(=O)c1nc[nH]c1C(=O)N[C@@H](CC(=O)O)C(=O)O | inactive: -2.76%
COc1ccc(NC(=O)C2CCCN(c3ncnc4onc(-c5ccc(F)cc5)c34)C2)cc1 (stereo not drawn) | inconclusive: -39.4% [inhibitor]
Clc1ccc(-c2nc(-c3cnccn3)no2)cc1 | inconclusive: -37.2% [inhibitor]
CN(C(=O)c1ccc(NC(=O)Cc2cccc(NC(=O)C3CCCN(S(=O)(=O)c4cccc([N+](=O)[O-])c4)C3)c2)cc1)C1CC1 (stereo not drawn) | inconclusive: -41.7% [inhibitor]
CCc1ccc2oc(-c3cc(N)ccc3O)nc2c1 | inconclusive: -42.8% [inhibitor]
